Reference: the BET-seq Pho4 binding data (Le et al. 2018)
Some of the results follow. Values were computed here from the reads of four pooled replicates and scatter widely.

Biological target: T1, Pho4 (S. cerevisiae) (UniProt P07270)
T1 sequence: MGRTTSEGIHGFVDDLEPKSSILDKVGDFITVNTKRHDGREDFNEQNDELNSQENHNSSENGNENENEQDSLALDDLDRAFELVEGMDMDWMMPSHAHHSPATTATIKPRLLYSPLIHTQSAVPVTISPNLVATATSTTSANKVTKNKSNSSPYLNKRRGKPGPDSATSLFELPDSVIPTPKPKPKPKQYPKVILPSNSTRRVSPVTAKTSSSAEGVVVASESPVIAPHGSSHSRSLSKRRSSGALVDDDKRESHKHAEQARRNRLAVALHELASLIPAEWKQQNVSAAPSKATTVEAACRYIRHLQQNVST
Assay: relative binding free energy (BET-seq); higher = weaker binding
Conditions: reference: library average

Relative binding free energy, 0.2 kcal/mol:
GGGTTCACGTGCTTGG
TGATTCACGTGTATCA
GGAGTCACGTGTCGTG
ATTATCACGTGAAGGG

Relative binding free energy, -0.08 kcal/mol:
AGATACACGTGTTAGG
CTCGGCACGTGGGAAG
ATGTGCACGTGGAGGG
TCACGCACGTGTGGTG
TGTGCCACGTGGTCGT
TTATGCACGTGTGAGT
TTGTCCACGTGGGAGG

Relative binding free energy, -0.06 kcal/mol:
TGAGGCACGTGTAGGC
GAGGGCACGTGCTGTG
GGCGTCACGTGGGTAT

Relative binding free energy, -0.12 kcal/mol:
CGTGGCACGTGGAGGC
CTAGACACGTGGGATG
TCGTGCACGTGTATAT
GGTGACACGTGGGTCA
AATGGCACGTGGGAGA
GATGACACGTGGGTGT

Relative binding free energy, 0.12 kcal/mol:
GTCATCACGTGTCGTT
TCTGTCACGTGTGAAG
TCAATCACGTGTGTTA
TCTTGCACGTGATAGG
TCGGTCACGTGTTCTG

Relative binding free energy, 0.09 kcal/mol:
ACTGGCACGTGAGTAG
GATCTCACGTGGGTAG
GTGTACACGTGTATAT
CATTACACGTGCGGGG
CGTGACACGTGTAATT
GGTGACACGTGTTGGG

Relative binding free energy, 0.07 kcal/mol:
TTTATCACGTGTATAG
GGAGTCACGTGGCGCG
TGGCACACGTGGCGTT
TGGTGCACGTGCGATT
TGGGTCACGTGGGCCT
AGCGACACGTGTAGGG
TGGTGCACGTGGAGCA
TCTGTCACGTGTCTGT
GCGTCCACGTGGGGAG

Relative binding free energy, -0.05 kcal/mol:
TATAACACGTGGTATA
CGGCACACGTGGGGAG
TAGGACACGTGGGTAC
GGGAACACGTGCTGGT
GCTGCCACGTGGAGGG
TTTAACACGTGCCGGG
TGTGCCACGTGACGGT

Relative binding free energy, 0.3 kcal/mol:
TGTTTCACGTGTACTT
TGGGTCACGTGTGAGC

Relative binding free energy, -0.01 kcal/mol:
TTGAACACGTGTTTCG
TTACGCACGTGTGTGC
GTTAGCACGTGTTCTG
TATTGCACGTGACGTG
TGAGTCACGTGGGTCT
TATGTCACGTGGTGAC

Relative binding free energy, 0.01 kcal/mol:
GGCGTCACGTGGGATA
TTAGTCACGTGGTGGA
GGTGACACGTGGTGAG
TGCAGCACGTGTGAGT
GCTGACACGTGTGGGG

Relative binding free energy, -0.14 kcal/mol:
CGTGGCACGTGTTTGT
AATTGCACGTGGGGAT
TTTAGCACGTGCATGT
TTAGCCACGTGTGGTA
AGGGGCACGTGGCGTG
CGATACACGTGGGTTT

Relative binding free energy, 0.17 kcal/mol:
ATTTTCACGTGTCGAG

Relative binding free energy, -0.19 kcal/mol:
ATGGGCACGTGGTGTG
TACAGCACGTGGGTGT

Relative binding free energy, -0.07 kcal/mol:
TCTCGCACGTGTGTGG
CAGTGCACGTGCGGTG

Relative binding free energy, 0.25 kcal/mol:
CTAGGCACGTGAGTGC
ATGCTCACGTGTATGA
GGGTTCACGTGGTTCC

Relative binding free energy, 0.24 kcal/mol:
TGTATCACGTGAAGGT

Relative binding free energy, -0.13 kcal/mol:
ATGGGCACGTGTAGTC
TGGGTCACGTGCATGT
AATAGCACGTGTTGTT
CTGGGCACGTGTTAGA

Relative binding free energy, -0.11 kcal/mol:
GGCGGCACGTGGAGCG
ATAAGCACGTGTTATT
TTGTGCACGTGTCATT
CTTAGCACGTGGTTTG

Relative binding free energy, 0.32 kcal/mol:
GGGCTCACGTGGTTGT

Relative binding free energy, 0.16 kcal/mol:
GTTGTCACGTGTGCGA
GGCCTCACGTGTGGTG
CGGGTCACGTGTTATA

Relative binding free energy, 0.28 kcal/mol:
TCACTCACGTGTAGTT
AGGTTCACGTGTGTCG
TGTTTCACGTGGAGCG

Relative binding free energy, 0.04 kcal/mol:
TGCATCACGTGGCGGG
GTGGTCACGTGCGGGC
AGTGACACGTGGAGAT
CAGGGCACGTGAGTTG
ATGTGCACGTGATGTG
TTTCACACGTGTTATG
ATTAGCACGTGGTTAC
GTTATCACGTGCTATG
CTATGCACGTGTAAGT
ATAATCACGTGTTATG
AAGGGCACGTGATTAT
TTTGGCACGTGATACG

Relative binding free energy, -0.21 kcal/mol:
TAATGCACGTGGGCTG

Relative binding free energy, 0.08 kcal/mol:
ATTTACACGTGTTAAG
GTGGTCACGTGCTAGA
CGAGGCACGTGTGTTC

Relative binding free energy, 0.23 kcal/mol:
AGTTTCACGTGGCGGT
AGTTACACGTGATTTG
TTGGTCACGTGGAGTC
GGGGTCACGTGAGCGT

Relative binding free energy, 0.06 kcal/mol:
AGGTCCACGTGGTGGC
TAATACACGTGGCGGG
GGAGTCACGTGTGCTG
TGAAACACGTGTGTGA

Relative binding free energy, 0.14 kcal/mol:
CTGTTCACGTGGTTAT
GATTGCACGTGTGTCG
AATCTCACGTGGTTTG

Relative binding free energy, 0.34 kcal/mol:
GTAGACACGTGAGATG
GTTTTCACGTGATTTA
GTGTTCACGTGACTTT
GGGTTCACGTGTGTAA
ATTTTCACGTGTTGAC
TATTTCACGTGAAGAA

Relative binding free energy, -0.25 kcal/mol:
GTGCGCACGTGGGGCC
AAGGGCACGTGTTCGT

Relative binding free energy, -0.16 kcal/mol:
TTCACCACGTGGGGGG
AAAGGCACGTGTTCTG
TAAGGCACGTGGTGCT
CAAGGCACGTGGGAGG

Relative binding free energy, -0.22 kcal/mol:
ATACGCACGTGTTGTA

Relative binding free energy, -0.17 kcal/mol:
ACTTGCACGTGTTTTG
CCGGGCACGTGGGGTC

Relative binding free energy, -0.09 kcal/mol:
CTTGGCACGTGCGTAT
GAAGGCACGTGTTAGT
TCAGGCACGTGTAGTG
TGCAGCACGTGTGGTC
TAGGGCACGTGTGAGC
TTTAGCACGTGCAAGT
TTCAACACGTGGGGGT

Relative binding free energy, -0.3 kcal/mol:
TGTCGCACGTGGGGTG

Relative binding free energy, -0.1 kcal/mol:
ATGTCCACGTGTGCGT
CGGAACACGTGTTGGG
TGAGACACGTGGGATG
TGAAGCACGTGGTACG
TGGTGCACGTGTCTTT

Relative binding free energy, 0.27 kcal/mol:
TTTATCACGTGACGGT
TATCTCACGTGGGAAT

Relative binding free energy, 0.1 kcal/mol:
AGTTGCACGTGTTCAG
ATCTACACGTGTTGGT
GTTTACACGTGGTAGC
ATTGACACGTGTGACT

Relative binding free energy, -0.2 kcal/mol:
TTGAGCACGTGCTGGA
AGAGGCACGTGGGTGT
TTAAGCACGTGGGATG

Relative binding free energy, -0.02 kcal/mol:
TTTTGCACGTGTTCGA
TCTAGCACGTGTTGTA
GTGCACACGTGGGTGT
TTAATCACGTGGCTTG

Relative binding free energy, 0.05 kcal/mol:
GTAGCCACGTGTAGGA
AATCGCACGTGTTAGT
AATTACACGTGTGCTT
ATTGGCACGTGTGATA

Relative binding free energy, -0.18 kcal/mol:
CGAGGCACGTGCTGGG

Relative binding free energy, -0.15 kcal/mol:
GTTGGCACGTGTTAGC
ATCGGCACGTGGTGTA

Relative binding free energy, 0.26 kcal/mol:
TTGTTCACGTGCTAGT
GCGGTCACGTGAGGGA
TTGGACACGTGAAGGT
TCTTTCACGTGAATTG

Relative binding free energy, 0.39 kcal/mol:
CCTTTCACGTGATTTT
AATTACACGTGGAAAT

Relative binding free energy, -0.03 kcal/mol:
CGATACACGTGTTGGG
TTCAGCACGTGCTGGT
AGGTACACGTGGGAAT
TGTACCACGTGTGTTG
GTCGGCACGTGTGCTG
CTTTGCACGTGTTTGG

Relative binding free energy, 0.03 kcal/mol:
TTTATCACGTGCGTTC
GTGGACACGTGTTAGT
TGCGTCACGTGGTGGT
CATAGCACGTGTTTTA
AGTTGCACGTGTACTT

Relative binding free energy, 0.56 kcal/mol:
TAGTTCACGTGAGAGC

Relative binding free energy, -0.29 kcal/mol:
TGAGGCACGTGGCATA

Relative binding free energy, 0.49 kcal/mol:
GGGTTCACGTGAGTGT
AAATTCACGTGAATTT

Relative binding free energy, 0.41 kcal/mol:
CTTATCACGTGAGGGG

Relative binding free energy, 0.11 kcal/mol:
GTTCGCACGTGCGAGG
TTTTGCACGTGGAATA
AGTTACACGTGATAGT
ATTGCCACGTGAGGGA
TATGTCACGTGCGGTG

Relative binding free energy, 0.18 kcal/mol:
TAAAACACGTGTGGGG
GCAGGCACGTGAGAGG

Relative binding free energy, 0.4 kcal/mol:
GTTAACACGTGAAGGG

Relative binding free energy, -0.24 kcal/mol:
GGGAGCACGTGGTCGG

Relative binding free energy, 0 kcal/mol:
CTTCGCACGTGTGGTG
CGCGTCACGTGTATGG
CTGTACACGTGGCGTT

Relative binding free energy, 0.02 kcal/mol:
TATGACACGTGTGTGA
ATCGGCACGTGGAAGT
CGTGTCACGTGGGCAT
TATTCCACGTGGTTGT
TTATGCACGTGTAGTC

Relative binding free energy, 0.37 kcal/mol:
TTGTTCACGTGTTGGC
TCGATCACGTGTGGCG

Relative binding free energy, 0.15 kcal/mol:
GAGGACACGTGGAGTT
ATAGTCACGTGCAGGT
GTGTGCACGTGGAACG
GGGGTCACGTGTCTCG
AGGATCACGTGGGTTA

Relative binding free energy, 0.19 kcal/mol:
TGTTCCACGTGAATGG
AGTCTCACGTGGCTGG
GTTGTCACGTGATAAG
TAATTCACGTGGTTGA
TTCATCACGTGTGTTG
AGAGTCACGTGAGTGT

Relative binding free energy, 0.31 kcal/mol:
AGGATCACGTGATGGT

Relative binding free energy, 0.21 kcal/mol:
GTCCACACGTGTTGGT
GGAGTCACGTGCGATT

Relative binding free energy, 0.13 kcal/mol:
AGAGTCACGTGATTGT
TTAATCACGTGTTATA
GTTATCACGTGTTACT
ACCGTCACGTGTGTGT

Relative binding free energy, -0.04 kcal/mol:
AGGTACACGTGGTTTT
TGAGGCACGTGTGGTG
CTAAGCACGTGTGTGA
CATTGCACGTGTCTGG
GGGGCCACGTGTTGAT
TATAGCACGTGTATGA
